Laboratory results published in publication PMC4336329 (PLoS ONE, 2015).
About 14,000 (4.5%) of roughly 310,000 compounds showed an effect of 50% or more. Effects have a minus sign here. This is one part of the list.

These compounds were tested against human ether-à-go-go-related gene (hERG) potassium channel (human, UniProt Q12809) (assay: primary screen, population patch clamp on CHO cells stably expressing hERG).
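Note: peak tail current of the secondary pulse compared with the same well before compound.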

Sequence of human ether-à-go-go-related gene (hERG) potassium channel (Q12809 whole entry, looked up): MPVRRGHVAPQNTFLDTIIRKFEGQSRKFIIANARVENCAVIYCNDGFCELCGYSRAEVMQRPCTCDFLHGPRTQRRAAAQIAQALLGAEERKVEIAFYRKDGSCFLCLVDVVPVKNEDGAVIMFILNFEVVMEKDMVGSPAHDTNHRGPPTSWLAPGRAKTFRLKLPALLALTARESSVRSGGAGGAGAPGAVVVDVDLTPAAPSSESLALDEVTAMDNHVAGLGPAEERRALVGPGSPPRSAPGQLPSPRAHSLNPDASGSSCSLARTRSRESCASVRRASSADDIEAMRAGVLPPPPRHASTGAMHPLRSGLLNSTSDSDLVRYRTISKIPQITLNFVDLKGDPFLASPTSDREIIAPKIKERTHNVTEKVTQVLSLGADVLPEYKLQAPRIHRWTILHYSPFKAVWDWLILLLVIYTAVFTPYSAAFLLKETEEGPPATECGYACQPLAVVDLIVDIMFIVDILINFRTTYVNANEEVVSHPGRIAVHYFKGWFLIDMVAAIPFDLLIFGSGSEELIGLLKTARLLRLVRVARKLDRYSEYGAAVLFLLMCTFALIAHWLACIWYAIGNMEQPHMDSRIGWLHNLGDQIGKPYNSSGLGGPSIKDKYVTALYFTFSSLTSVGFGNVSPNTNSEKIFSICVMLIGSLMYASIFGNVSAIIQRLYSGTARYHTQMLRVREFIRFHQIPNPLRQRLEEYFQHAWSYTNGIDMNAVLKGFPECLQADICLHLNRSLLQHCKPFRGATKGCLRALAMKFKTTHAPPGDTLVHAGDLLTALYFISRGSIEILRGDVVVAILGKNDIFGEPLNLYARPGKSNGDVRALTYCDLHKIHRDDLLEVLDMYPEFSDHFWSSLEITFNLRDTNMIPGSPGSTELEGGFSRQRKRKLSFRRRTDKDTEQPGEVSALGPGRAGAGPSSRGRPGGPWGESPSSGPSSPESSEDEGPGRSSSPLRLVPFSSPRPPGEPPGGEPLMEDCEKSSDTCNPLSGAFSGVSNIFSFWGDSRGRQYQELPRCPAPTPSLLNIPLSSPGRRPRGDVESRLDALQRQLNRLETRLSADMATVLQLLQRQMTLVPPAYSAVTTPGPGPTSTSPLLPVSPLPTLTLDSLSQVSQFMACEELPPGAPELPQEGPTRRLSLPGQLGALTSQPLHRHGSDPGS

SMILES	hERG current change (%, negative = inhibition) at 10uM [%]
CCOC(=O)CSc1nc(C)c2ccccc2n1	0.921
CCOc1ccc(/C=C2\SC(=S)N(CCC(=O)N(CCO)c3ccccc3)C2=O)cc1	17
O=C(CSCc1ccc(Br)cc1)N=Nc1c(O)[nH]c2ccccc12	11.8
CC1CC(C)CN(S(=O)(=O)c2ccc(C(=O)NCc3ccc4c(c3)OCO4)cc2)C1 (stereo not drawn)	10.1
Cc1cc(Br)ccc1NC(=O)CN(C)C(=O)CN1C(=O)NC(C)(C2CC2)C1=O (stereo not drawn)	14.6
Cc1ccccc1N=C(N)Nc1ccccc1C	4.87
CCCOC(=O)CSc1nc(N)c(C#N)c(-c2ccco2)c1C#N	2.95
CCOC(=O)N1CCN(CC(=O)c2c(C)[nH]c3ccccc23)CC1	-2.94
Cc1c(C(=O)N(Cc2nnc(-c3ccccc3Cl)o2)C2CC2)oc2ccccc12	-12.6
Cc1cccc(CN2CCC(C(=O)Nc3cccc(-c4cccc(F)c4)c3)CC2)n1	-74
Cc1ccc(NC(=O)N2CCN(S(=O)(=O)c3ccccc3)CC2)cc1	10.2
COc1ccccc1N/C(N)=N/c1nc(C(F)(F)F)cc(=O)[nH]1	13
Nc1ccc(O)c2c1C(=O)c1ccccc1C2=O	14.4
CCCc1cc(=O)oc2cc(OCC(=O)NCCc3ccc(S(N)(=O)=O)cc3)ccc12	-3.31
CC(C)(C)n1c(=O)[nH]c2c(c1=O)CCC2	13.8
CN(Cc1ccccc1)Cc1c[nH]c2ccccc12	-16.5
C=CCn1c(=O)c2c(nc3n2CCS3)n(C)c1=O	6.63
COCCN(C(=O)CSc1nnc(-c2ccccc2OC)o1)c1c(N)n(CC(C)C)c(=O)[nH]c1=O	6.73
CCCCSc1nc(C)cc(SCC(=O)N/N=C/c2ccccc2)n1	-2.55
COc1cccc(C(C(=O)NC2CCCC2)N(C(=O)c2ccco2)c2ccccc2F)c1OC (stereo not drawn)	-0.0716
COc1ccc(C(=O)C[n+]2ccc(C)cc2)cc1.[Br-]	17.8
CC1(c2nnc(-c3ccc(F)cc3)o2)CC(c2ccc([N+](=O)[O-])cc2)=NO1 (stereo not drawn)	-39.7
Cc1c(F)cccc1NS(=O)(=O)c1ccc2c(c1)c(=O)n(C)c(=O)n2C	3.8
COc1ccc(-c2cnnc(N/N=C/c3c(C)nn(-c4ccccc4)c3Cl)n2)cc1	4.22
